± gives the standard deviation of the averaged measurements. The list shows a part of the results.

The experiment relates to PfAP2-I AP2 domain 3 (GST-tagged). The experiment is described as follows: gcPBM binding intensity (ln(normalized median fluorescence intensity)); higher = stronger DNA binding. Put shortly:
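Binding of GST-tagged P. falciparum DNA-binding domains, expressed in E. coli and used at about 25 μg on average, was carried out for 1 h in 1× PBS containing 1% milk, 0.2 mg/ml BSA, 0.5% salmon testes DNA and 0.03% Triton X-100. The target was an Agilent 4 × 180k array of primer-extended double-stranded 36-bp intergenic genomic probes plus negative controls, read with Alexa488 anti-GST antibody at 488 nm. Binding intensity is the highest Masliner-normalised natural-log median intensity across replicate spots of either probe orientation.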
In the case of “CATACACCCATACATACACACATACATACACCCATA [CACACA_site5124]”, the “gcPBM binding intensity (ln)” value worked out at 8.07 ± 0.35. Consider “TCTTTTCAATTATCCTATATTCTTTTATTTTTAATT [GTGCAC_negctrl_site326]”, for which the “gcPBM binding intensity (ln)” value came to 7.75 ± 0.61. “ATATCTAAATATATTACACACAGATATCTTCCTATA [CACACA_site3701]”: the “gcPBM binding intensity (ln)” value came to 7.88 ± 0.61. To “AACAAATAAAGCTATGACATGTTAAAATTGTTTCAC [XGTACX_negctrl_site67]” belongs 7.49 ± 0.65; to “ATTCGTATGAGCATAACACACAATATCGATATTTCT [CACACA_site4165]”, 7.88 ± 0.5. The result for “ATAAAGGAATTTTATACACACAACATATAAATATAT [CACACA_site7365]” reads 7.72 ± 0.47.

As to “AGAGAAAAATATTTGGACAAAAATAATATAATATAT [CACACA_negctrl_site656]”, the “gcPBM binding intensity (ln)” value was determined as 7.64 ± 0.73. Turning to “GATAAAGTAAAAATATGTACATATATATTTTAAGTT [XGTACX_site6439]”, the “gcPBM binding intensity (ln)” value was determined as 7.85 ± 0.4.

In the case of “TATATCTGTAAATGCACACATATGTGGATATACTTA [CACACA_site5013]”, the “gcPBM binding intensity (ln)” value was determined as 10.41 ± 0.085.

Take “TATAAATATAAATACACACACATATAGATTATAGAT [CACACA_site6429]”: the “gcPBM binding intensity (ln)” value came out at 7.72 ± 0.76. As to “TCTAATAATATATACACACACATATATATTTATATA [CACACA_site2032]”, the “gcPBM binding intensity (ln)” value worked out at 7.71 ± 0.41.

As to “TGCTACATTCTATGTACACACATATACATATATATA [CACACA_site893]”, the “gcPBM binding intensity (ln)” value amounted to 8.16 ± 0.6.

“GTTCATTCATTTTAATGTACAAATTTAACTTTTTCT [XGTACX_site680]”: the “gcPBM binding intensity (ln)” value was found to be 7.61 ± 0.48. The result for “AGAAATTATAAATACCTACACACTTATCAAAATAAA [CACACA_site2264]” reads 7.47 ± 0.57; that for “TAAGACATGATATATACACACCTTGTTTTAATTTTC [CACACA_site5282]”, 7.75 ± 0.44; that for “AAATGAGAAGAAATACGTACATATAATAAAATAATT [XGTACX_site4439]”, 8.03 ± 0.69. The result for “ATACATATATAAATACGTACATATATAATTATATAT [XGTACX_site8178]” reads 7.79 ± 0.35.

On to “ATGCATAAATTTTGAAGTACAAAAAAAAAAAATAAA [XGTACX_site7282]”, for which the “gcPBM binding intensity (ln)” value is 7.87 ± 0.24. For “TCTGTAAAGTAATGGACACACAATATATCCATTTAT [CACACA_site1536]”, the “gcPBM binding intensity (ln)” value worked out at 7.5 ± 0.52.

For the sequence “TTTCATTGGTTTATAAAATTATGAGATCTTAAAGAC [CACACA_negctrl_site1484]”, the “gcPBM binding intensity (ln)” value worked out at 7.71 ± 0.52. As to “ATATATATATATATATGTACATATATTTATATTTAT [XGTACX_site6179]”, the “gcPBM binding intensity (ln)” value worked out at 9.22 ± 0.57.

With “GAATAATATGGACATACACACATATACATACAGATA [CACACA_site5200]”, the “gcPBM binding intensity (ln)” value worked out at 8 ± 0.33. The result for “TTATATATCTATAATACACACATAATAATATATTTA [CACACA_site7423]” reads 7.79 ± 0.35; that for “GCTACGTAAAAAATATGTACATATGAAATATTTTGC [XGTACX_site5111]”, 7.88 ± 0.61; that for “TTAACATTATATGAAGGTACAGAAAAAAAAAAATTA [XGTACX_site8530]”, 7.61 ± 0.61. As to “TTTCTTATAGATTTTAATCCTCTATCAAAAAAAGAA [GTGCAC_negctrl_site162]”, the “gcPBM binding intensity (ln)” value turned out to be 7.63 ± 0.38. In the case of “AAATAAAAAAAATTTGCACACCTTCAAAGTAATATA [CACACA_site1583]”, the “gcPBM binding intensity (ln)” value was found to be 8.995 ± 0.064. To “CATACAGTATTATACTGTACCCATACAAAAAAATAT [XGTACX_site6130]” belongs 7.89 ± 0.57.

On to “CTTATTTAAGAGTATGAACACACATCATACACATAT [CACACA_site9205]”, for which the “gcPBM binding intensity (ln)” value came to 7.67 ± 0.51. Consider “TTTTTAATATTCTATGCATGCATCGCATATTTGGTT [TGCATGCA_site1004]”, for which the “gcPBM binding intensity (ln)” value is 7.67 ± 0.73. The result for “AAAATATAATATAATGCACACATAAACAAAAAAAAA [CACACA_site8161]” reads 10.9 ± 0.74; that for “TTTTATTTAACTCATAATTTTTTAAAAAACAATTAT [XGTACX_negctrl_site19]”, 7.7 ± 0.49; that for “TTTTTTTTTTTTTTGGGTACATAATAATAACAAGTG [XGTACX_site1034]”, 7.9 ± 0.16. With “CATGTAATATTAAACACACACTCATATAACTCAATA [CACACA_site4212]”, the “gcPBM binding intensity (ln)” value worked out at 7.66 ± 0.47. To “CACATATACTTCTGTGCACACGAATATTTTTCTTCT [CACACA_site1408]” belongs 10.3 ± 0.26. Turning to “AATACATATTCAAAGGTGCAAAATAAAAATATACAT [GTGCAC_site9743]”, the “gcPBM binding intensity (ln)” value was 11.2 ± 0.44. The result for “TTATAATAAGATTGTTGTACTTATATTCCTTCTATA [XGTACX_site3173]” reads 7.58 ± 0.59; that for “TCGTTTCATATTTATCATGAGATAATCACACGAACA [TGCATGCA_negctrl_site497]”, 7.75 ± 0.47. The result for “TGTTTTGTATATATAGCATGCAGTAAGGGAAAAAAA [TGCATGCA_site652]” reads 8.63 ± 0.73; that for “TAGTTATAAGAGTTACAAAGAATACCGGAAATATAG [CACACA_negctrl_site1829]”, 8.03 ± 0.63; that for “AATGTCAATTTTAATAGTACACAAATATATATATAT [XGTACX_site521]”, 9.15 ± 0.24.

As for “AATGACCATTTTTAAAATTACAAATACATACAACTG [TGCATGCA_negctrl_site420]”, the “gcPBM binding intensity (ln)” value came to 7.65 ± 0.48. Turning to “AAGTATTATTATAAGACACACATGTATTTAAGTATA [CACACA_site4922]”, the “gcPBM binding intensity (ln)” value is 7.74 ± 0.5. As for “TTTTATTCCTATTTATTTATATTTTTGTCTTATATC [CACACA_negctrl_site125]”, the “gcPBM binding intensity (ln)” value is 7.59 ± 0.85.

The record behind these values is the supplement of paper PMC11417369.
